From PubChem BioAssay AID360 (National Center for Advancing Translational Sciences (NCATS), 2006) come the findings set out here.

The campaign covered roughly 48,000 compounds. About 550 (1.1%) were called active. Not shown: some 4% with an inconclusive outcome. Cut-off read from the data, not from the text of the source: active = potency below about 15 µM; inconclusive = mostly about 16 µM to 33 µM; inactive = weaker than that. The list shows a part of the results. Where only a bound is given, the exact number is not on record here.
Potency is the fitted concentration of half-maximal effect.

Sequence of UniProt P04062 (P04062 whole entry, looked up): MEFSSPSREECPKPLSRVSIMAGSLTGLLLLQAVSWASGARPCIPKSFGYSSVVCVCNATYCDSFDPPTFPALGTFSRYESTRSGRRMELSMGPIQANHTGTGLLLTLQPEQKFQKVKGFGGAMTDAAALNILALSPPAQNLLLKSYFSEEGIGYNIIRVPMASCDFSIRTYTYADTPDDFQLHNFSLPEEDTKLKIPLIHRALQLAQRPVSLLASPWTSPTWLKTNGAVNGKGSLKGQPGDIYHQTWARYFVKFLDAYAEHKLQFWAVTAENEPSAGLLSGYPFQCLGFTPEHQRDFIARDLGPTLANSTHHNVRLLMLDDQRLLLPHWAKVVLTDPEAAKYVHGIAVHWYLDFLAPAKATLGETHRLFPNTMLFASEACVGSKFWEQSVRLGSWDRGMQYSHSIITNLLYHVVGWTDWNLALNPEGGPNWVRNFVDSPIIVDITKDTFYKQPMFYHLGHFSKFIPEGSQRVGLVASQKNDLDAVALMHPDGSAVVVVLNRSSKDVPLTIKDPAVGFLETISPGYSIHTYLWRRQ

The test addresses Lysosomal acid glucosylceramidase (Homo sapiens) (UniProt P04062). Kind of test: Glucocerebrosidase.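 Note: the screen sought inhibitors.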 The note with it: purified enzyme, resorufin glucoside fluorescence (screen aimed at inhibitors), 20 min. A digest of the protocol:
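Wild-type enzyme at 0.2 nM final in 50mM citric acid/KH2PO4, 10mM sodium taurocholate, 0.01% tween-20, pH 5.9, with resorufin beta-D-glucopyranoside at 30 uM final. Compounds titrated, 20 min at RT, red fluorescence read; AC50 from titration.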
Regarding `COC(=O)[C@H](CCSC)NC(=O)N1CCN(Cc2ccccc2)CC1`, the Potency is inactive: > 76.9 µM.
For the compound `CCC(=O)Nc1cc(C)c(NC(=O)c2ccccc2OC)cn1`, the Potency was inactive: > 76.9 µM.
To `CCCC(C(=O)NCc1ccco1)N(C(=O)CNS(=O)(=O)c1ccccc1)C1CCCC1` (stereo not given) belongs inactive: > 76.9 µM; to `COc1ccc(NC(=O)c2ccco2)c(NC(=O)Cc2cccs2)c1`, inactive: > 76.9 µM; to `CC12CCC(C(=O)O)(c3nc(C#N)c(C#N)nc31)C2(C)C` (stereo not given), inactive: > 76.9 µM.
To `NS(=O)(=O)c1ccc(NC(=O)CN2CCCCC2)cc1` belongs inactive: > 76.9 µM; to `CCn1c(=O)c2c(nc3n2CCCN3CCc2ccccc2)n(C)c1=O`, inactive: > 76.9 µM; to `Cc1cc(N2CC(C(=O)O)CC2=O)ccc1Br` (stereo not given), inactive: > 76.9 µM.
To `CCCC1(CCC)NC(=O)NC1=O` belongs inactive: > 76.9 µM; to `O=C(NCC(c1cccnc1)N1CCN(c2ccccc2F)CC1)OCc1ccccc1` (stereo not given), inactive: > 76.9 µM.
Regarding `c1ccc(Cn2nnnc2C(c2ccccn2)N2CCOCC2)cc1` (stereo not given), the Potency is inactive: > 76.9 µM.
To `CCOC(=O)Cn1c(=O)c2c(nc3n2CCS3)n(C)c1=O` belongs inactive: > 76.9 µM; to `C=C(C)CSc1nc2ncccc2[nH]1`, inactive: > 76.9 µM.
Consider `COc1cccc(-c2nnc(SCC(=O)OC(C)C)n2Cc2ccco2)c1`, for which the Potency is inactive: > 76.9 µM.
For `Clc1ccccc1CSc1nnc(-c2cccnc2)n1Cc1ccco1`, the Potency was inactive: > 76.9 µM.
Take `COc1ccc2sc(NC(C)=O)nc2c1`: the Potency is inactive: > 76.9 µM.
To `COc1ccccc1-c1ccc(Nc2cccc(C(C)=O)c2)nn1` belongs inactive: > 76.9 µM.
`O=C(CCCc1nc(-c2ccccc2)no1)NCc1cccnc1`: the Potency was inactive: > 76.9 µM.
Turning to `COc1ccc(N2C(=O)CSC23CCCCC3)cc1`, the Potency is inactive: > 76.9 µM.
For the compound `CCS(=O)(=O)N1CCC(C(=O)NCCc2ccccc2)CC1`, the Potency is inactive: > 76.9 µM.
To `CCCCc1cc(O)c(CCCC)c(O)c1` belongs inactive: > 76.9 µM.
To `O=C(NCCCn1ccnc1)c1cc(S(=O)(=O)N2CCOCC2)c(Cl)cc1Cl` belongs inactive: > 76.9 µM; to `Cc1nn(C)cc1CNC(=O)CCC(=O)O`, inactive: > 76.9 µM.
To `Cn1c(=O)c2cc(S(=O)(=O)NCCC(=O)Nc3ccc(Cl)cc3)ccc2n(C)c1=O` belongs inactive: > 76.9 µM; to `COc1ccc(CCn2c(=S)[nH]c3cc(C(=O)NCc4ccco4)ccc3c2=O)cc1OC`, inactive: > 76.9 µM; to `CCOC(=O)c1c(C2CC2)csc1NC(=O)CSCc1c(C)noc1C`, inactive: > 76.9 µM.
As for `O=C(O)CCCNC(=O)OCc1ccccc1`, the Potency was inactive: > 76.9 µM.
To `COc1ccc(OC)c(NC(=O)CSc2nc3ccccc3c(=O)n2CCNC(C)=O)c1` belongs inactive: > 76.9 µM; to `C1CN(c2nc3nonc3n3nnnc23)CCO1`, inactive: > 76.9 µM; to `COc1cccc(C(=O)NC2CCN(C(=O)N3CCCCC3)CC2)c1`, inactive: > 76.9 µM.
To `Cc1oc(-c2ccccc2)cc1C(N)=O` belongs inactive: > 76.9 µM; to `C=CCN(CC(=O)NCC1CCCO1)C(=O)CCC(=O)Nc1cc(C)on1` (stereo not given), inactive: > 76.9 µM.
With `C#CCSc1nc(-c2cccs2)ccc1C#N`, the Potency was inactive: > 76.9 µM.
To `COCCN1Cc2cccc(C(=O)Nc3cccc(C)c3C)c2C1=O` belongs inactive: > 76.9 µM; to `CCCS(=O)(=O)N1CCC(C(=O)NCCCOC(C)C)CC1`, inactive: > 76.9 µM.
Turning to `CC(C)n1nnnc1SCC(=O)NCc1cccs1`, the Potency was inactive: > 76.9 µM.
As to `CCn1c(N2CCN(S(=O)(=O)c3ccccc3C(F)(F)F)CC2)nc2ccccc21`, the Potency was inactive: > 15.4 µM.
Turning to `Cc1ccc(C(=O)NCC2CCCO2)cc1N1CCCC1=O` (stereo not given), the Potency was inactive: > 76.9 µM.
For `COc1cccc(NC(=O)CN2CCN(c3ccccc3F)CC2)c1`, the Potency was inactive: > 76.9 µM.
To `Cc1nnc(-c2ccccc2)c[n+]1[O-]` belongs inactive: > 76.9 µM; to `Cc1cccc(C)c1NC(=O)C1CC(=O)N(C(C)C)C1` (stereo not given), inactive: > 76.9 µM; to `Cc1cc(C)n(-c2nnc(C)n2NS(C)(=O)=O)n1`, inactive: > 76.9 µM.
To `O=C(O)c1cc(S(=O)(=O)N2CCCCC2)ccc1F` belongs inactive: > 76.9 µM; to `O=C(c1ccc2c(c1)OCCCO2)c1cccs1`, inactive: > 76.9 µM.
To `CSc1nc(NC(C)(C)C)nc(N2CCOCC2)n1` belongs inactive: > 76.9 µM; to `O=C(Oc1cccc(Oc2ccccc2)c1)N1CCOCC1`, inactive: > 76.9 µM; to `O=C(CNC(=O)c1cccs1)NCCN1CCN(Cc2ccccc2)CC1`, inactive: > 76.9 µM.
As to `CCC1(CC)NC(=O)N(CC(=O)Nc2sc3c(c2C(N)=O)CCC3)C1=O`, the Potency is inactive: > 76.9 µM.
To `CS(=O)(=O)N(CC(=O)N1CCCCC1)c1sc2c(c1C#N)CCCC2` belongs inactive: > 76.9 µM; to `CCCN1C(=O)C(NS(=O)(=O)c2ccc(N)cc2)(C(F)(F)F)C(C(=O)OC)=C1C` (stereo not given), inactive: > 76.9 µM; to `Cc1c(NC(=O)c2cccc(S(=O)(=O)N3CCOCC3)c2)c(=O)n(-c2ccccc2)n1C`, inactive: > 76.9 µM.
To `O=C(O)CCCC(=O)Nc1ccc(C(=O)N2CCCCC2)cc1` belongs inactive: > 76.9 µM; to `COc1ccccc1CNc1nc2nc3c(c(=O)n2[nH]1)CCC3`, “inactive”.
Regarding `Cc1cccc(OCC(=O)N(Cc2cccs2)C2CCS(=O)(=O)C2)c1C` (stereo not given), the Potency is inactive: > 76.9 µM.
As for `O=C1c2ccccc2C(=O)N1Cc1nn2c(-c3ccc(Cl)cc3)nnc2s1`, the Potency was active: 7.78 µM.
To `COC(=O)c1ccc(-n2nnnc2SCc2ccccc2OC)cc1` belongs inactive: > 76.9 µM; to `COc1cccc(-c2nn3c(-c4cccc(C)c4)nnc3s2)c1`, inactive: > 76.9 µM.
In the case of `COc1ccc(OC)c(-c2cc(C(=O)Nc3c(C)nn(Cc4ccccc4C)c3C)no2)c1`, the Potency is inactive: > 76.9 µM.
On to `O=C(CCC(=O)N1CCN(c2ccccn2)CC1)Nc1nnc(C2CCCCC2)s1`, for which the Potency is inactive: > 76.9 µM.
To `CC(=O)c1cccc(N(CC(=O)Nc2cccnc2)S(C)(=O)=O)c1` belongs inactive: > 76.9 µM.
